In assay [1] the target is T1, 1-1-5 (Homo sapiens, UniProt O00501, A34S/A72N/D37G/E76T/F35Y/G26A/H38D/H61Q/K48E/L36A/M29Q/M62I/Q31R/T33Y/T45A/T46M/T75S/V32I/V56S/V70L/W47Y/Y67F).
T1 construct: expressed in transfected cells; host or cells: retrovirus-infected cells (pCX4pur)
T1 sequence (O00501 1-218 G26A/M29Q/Q31R/V32I/T33Y/A34S/F35Y/L36A/D37G/H38D/T45A/T46M/W47Y/K48E/V56S/H61Q/M62I/Y67F/V70L/A72N/T75S/E76T): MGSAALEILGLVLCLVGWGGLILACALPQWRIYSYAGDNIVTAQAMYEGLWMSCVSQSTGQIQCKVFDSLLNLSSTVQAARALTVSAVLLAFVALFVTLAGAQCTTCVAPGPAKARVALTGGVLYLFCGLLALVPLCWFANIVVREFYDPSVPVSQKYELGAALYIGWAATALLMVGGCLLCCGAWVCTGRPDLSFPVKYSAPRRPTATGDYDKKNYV
Description: Epitope analysis FACS, chimeric protein 1-1-5. The following applies: antibody concentration 5 μg/mL; first extracellular loop substituted with hCLDN-1. Type of assay: binding.

Assay [2] relates to hCLDN-5. The assay is described as follows: Epitope analysis by hCLDN-5/hCLDN-1 chimeric CLDN (FACS), loop assignment. Format: binding, human. The following applies: antibody concentration 5 μg/mL, hCLDN-5/hCLDN-1 chimeras.
The target of assay [3] is T2, 5-5-1 (Homo sapiens, UniProt O00501, A162Q/K157R/L160F/Q156A/S151M/S155N/V152T).
T2 construct: expressed in transfected cells; host or cells: retrovirus-infected cells (pCX4pur)
T2 sequence (O00501 1-218 S151M/V152T/S155N/Q156A/K157R/L160F/A162Q): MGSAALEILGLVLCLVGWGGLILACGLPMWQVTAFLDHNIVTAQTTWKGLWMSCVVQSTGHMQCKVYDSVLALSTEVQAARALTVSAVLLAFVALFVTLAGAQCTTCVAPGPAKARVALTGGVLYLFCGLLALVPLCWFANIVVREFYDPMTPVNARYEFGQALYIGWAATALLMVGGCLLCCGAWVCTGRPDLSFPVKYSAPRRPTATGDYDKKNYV
The assay is described as follows: Epitope analysis FACS, chimeric protein 5-5-1. Format: binding. The following applies: antibody concentration 5 μg/mL; second extracellular loop substituted with hCLDN-1.

The subject of assay [4] is hCLDN-5. Description: Epitope analysis by hCLDN-5/mCLDN-5 chimeric CLDN (D68E, T75A, S151T, TM; FACS). Type of assay: binding, human. To be noted: antibody concentration 5 μg/mL, mutants D68E.
The subject of assay [5] is MDCKII/hCLDN-5. The assay is described as follows: TEER of CLDN-5 compulsory expression system, MDCKII/hCLDN-5. Format: cell-based, human. The following applies: MDCKII/hCLDN-5, FIG. 7B.

These results are taken from patent US11053313B2, “Anti-CLDN-5 antibody, and drug containing said antibody” (OSAKA UNIVERSITY, priority 2017, dated 2021).

B1: M3: mouse anti-CLDN-5 monoclonal antibody, IgG2b/K; VH SEQ ID NO: 1, VL SEQ ID NO: 2; example of antibody A (antibody, V domains shown)
VH: EVQLQQSGPELVKPGASVKISCKASGYSFTGYYMNWVKQSPEKSLEWIGDINPSTGGATYNQKFKAKATLTVDKSSSTAYMQLKSLTSEDSAVFYCALYSNYGFVYWGQGTLVTVSA
VL: DVVMTQTPLTLSVTLGQPASISCKSSQSLLYSDGKTYLNWLLQRPGQSPKRLIYLVSKLDSGVPDRFTGSGSGTDFTLKISRVEAEDLGLYYCVQGIHFPRTFGGGTKLEIK
modifications: M3 VH; M3 VL
Take B1: the “recognition of 1-1-5” value in assay [1] is recorded as “capable of recognizing”. For the same molecule, the “extracellular loop of CLDN-5 recognized” value in assay [2] is “second extracellular loop”. For the same molecule, the “recognition of 5-5-1” value in assay [3] is given as “incapable of recognizing”. Moreover, the “portion of hCLDN-5 recognized” value in assay [4] is “three-dimensional structure created by the transmembrane domain of hCLDN-5”. Further, in assay [5], the “reduction in TEER” value is given as “greatly reducing TEER”.
